Assay results: PubChem BioAssay AID2147 (National Center for Advancing Translational Sciences (NCATS), 2009)
In all, about 230,000 compounds went through this assay and about 3,600 (1.6%) were called active. The inconclusive results got no clear call from the source; some entries with a clear call stand among them for comparison. Calls come from the whole dose curve; as a rule, active = well fitted inhibition curve with a large enough effect (not every such curve was filed as active); inconclusive = small, poorly fitted or top-dose-only effect, or another doubt; inactive = no such curve, though single readings can be large or run the other way. A potency beside an inconclusive call is a rough fit, not a confirmed value.

Target: Lysine-specific demethylase 4E (Homo sapiens) (UniProt B2RXH2)
Chain of UniProt B2RXH2 (B2RXH2 whole entry, looked up, the tested form may be a part): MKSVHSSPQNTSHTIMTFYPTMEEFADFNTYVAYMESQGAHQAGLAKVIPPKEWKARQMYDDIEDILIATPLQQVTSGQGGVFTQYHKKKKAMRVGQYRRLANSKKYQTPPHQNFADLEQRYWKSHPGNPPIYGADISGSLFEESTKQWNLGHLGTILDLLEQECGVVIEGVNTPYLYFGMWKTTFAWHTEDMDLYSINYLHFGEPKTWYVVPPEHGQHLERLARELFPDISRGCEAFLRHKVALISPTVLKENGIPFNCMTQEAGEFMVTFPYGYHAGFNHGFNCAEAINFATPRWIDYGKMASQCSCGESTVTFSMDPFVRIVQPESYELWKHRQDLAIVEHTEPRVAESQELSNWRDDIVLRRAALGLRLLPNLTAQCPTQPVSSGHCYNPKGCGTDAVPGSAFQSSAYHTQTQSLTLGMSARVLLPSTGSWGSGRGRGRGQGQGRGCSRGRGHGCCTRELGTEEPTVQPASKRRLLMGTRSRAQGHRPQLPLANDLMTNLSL
Test: qHTS Assay for Inhibitors of Human Jumonji Domain Containing 2E (JMJD2E)
Settings: JMJD2E catalytic domain, FDH-coupled NADH fluorescence (FDH is formaldehyde dehydrogenase); series mostly up to 57.1 µM; activity change, negative = inhibition: at the top concentration
Note: nearly all actives have a fitted effect of over 50% in size.
Potency is the fitted concentration of half-maximal effect; tags give direction and shape of the fitted curve.
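Throughout, for activity change, negative = inhibition: 0% = wells with enzyme and -100% = buffer wells without enzyme.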

Row | Structure (SMILES) | activity change, negative = inhibition | Potency
1 | N#Cc1c(Cl)cccc1-n1ccnc1 | inactive: -2.11% | –
2 | CCOC(=O)c1cc(=O)n(Cc2ccccc2C)c2ccccc12 | – | inconclusive: 35.5 µM [inhibitor, single point]
3 | CN(C)S(=O)(=O)c1ccc(C(=O)NCCSc2ccccc2)cc1 | inactive: -3.21% | –
4 | Nc1cccc2c1C(=O)N(C(=O)c1ccc(Cl)c(S(=O)(=O)N3CCCCCC3)c1)C2=O | – | inconclusive: 35.5 µM [inhibitor, partial curve]
5 | CC(=O)NCC(=O)OCC(=O)c1ccc(C)c(C)c1 | inactive: 10.1% | –
6 | COc1ccc(Br)cc1/C=N/NC(=O)c1cc(OC)c(OC)c(OC)c1 | – | inconclusive: 25.1 µM [inhibitor, single point]
7 | C=CCNC(=S)N1CCN(c2ncc3c(=O)c(C(=O)O)cn(CC)c3n2)CC1 | – | inconclusive: 28.2 µM [inhibitor, single point]
8 | COc1ccc(C2CC(c3cccs3)=NN2C(=O)CSC2=NN3CCCC(=O)N=C3S2)cc1 (stereo unspecified) | – | inconclusive: 39.8 µM [inhibitor, single point]
9 | COc1cc(S(=O)(=O)N2CCOCC2)ccc1NC(=O)CN1c2cccc3cccc(c23)S1(=O)=O | – | inconclusive: 25.1 µM [inhibitor, partial curve]
10 | CCCCCC/C=C\CCCCCCCc1cccc(O)c1C(=O)O | – | inconclusive: 39.8 µM [inhibitor, single point]
11 | O=C(NCCc1c[nH]c2ccccc12)/C(=C/c1cccnc1)NC(=O)c1cccs1 | inactive: -7.76% | –
12 | N#Cc1sc2nc(-c3cccs3)cc(-c3ccc(Cl)cc3)c2c1N | – | inconclusive: 35.5 µM [inhibitor, single point]
13 | O=c1c(Cl)c(Cl)cnn1Cc1ccccc1Cl | inactive: -1.72% | –
14 | O=C(Nc1ccc2c(c1)OCO2)c1ccc(Cl)s1 | inactive: 5.48% | –
15 | CCOC(=O)NCc1ccc2c(c1)cc(C)n2C | – | inconclusive: 39.8 µM [inhibitor, single point]
16 | CCCN1C(=O)C2(C(C(=O)c3ccc(C)o3)=C(O)C(=O)N2CCCN2CCOCC2)c2ccccc21 (stereo unspecified) | inactive: 0.178% | –
17 | O=C(CCN1C(=O)C2CCCCC2C1=O)Nc1ccc(F)c(F)c1F (stereo unspecified) | inactive: -0.201% | –
18 | N#CCCCSc1ncccc1-c1nc2ccccc2[nH]1 | – | inconclusive: 28.2 µM [inhibitor, partial curve]
19 | CCOC(=O)C1=C(N)Oc2c(oc(CO)cc2=O)C1c1ccc(F)c(F)c1 (stereo unspecified) | – | inconclusive: 5.62 µM [inhibitor, single point]
20 | COc1cccc(-c2cc(C(F)(F)F)n3ncc(S(=O)(=O)c4ccccc4)c3n2)c1 | – | inconclusive: 6.31 µM [inhibitor, single point]
21 | Cn1c(CSc2nc3ccccc3s2)nc2ccccc21 | – | inconclusive: 35.5 µM [inhibitor, single point]
22 | Cc1cc(=O)oc2cc(OCC(=O)OCC(=O)Nc3c(C)n(C)n(-c4ccccc4)c3=O)ccc12 | – | inconclusive: 28.2 µM [inhibitor, partial curve]
23 | N/C(=N\OC(=O)c1ccc(Cl)cc1)c1nonc1N | inactive: -2.93% | –

Row | Structure (SMILES) | activity change, negative = inhibition | Potency
24 | COc1ccccc1-c1nc(C#N)c(NCc2ccc(F)cc2)o1 | – | inconclusive: 31.6 µM [inhibitor, partial curve]
25 | O=C1/C(=C\c2ccco2)SC(=S)N1C1CCS(=O)(=O)C1 (stereo unspecified) | – | active: 28.2 µM
26 | COc1cc(/C=N/Nc2nc3c(c(=O)n(C)c(=O)n3C)n2Cc2ccccc2)ccc1OC(=O)c1ccco1 | – | inconclusive: 31.6 µM [inhibitor, partial curve]
27 | CN1CCN(CCc2cn3ncc(C#N)c3nc2-c2ccc(F)cc2)CC1 | – | inconclusive: 25.1 µM [inhibitor, partial curve]
28 | O=C(NCCc1ccccc1)c1ccccc1NC(=O)C1CC=CCC1C(=O)O (stereo unspecified) | – | inconclusive: 25.1 µM [inhibitor, partial curve]
29 | CN(CC(=O)O)S(=O)(=O)c1ccc2[nH]c(=O)c(=O)[nH]c2c1 | – | inconclusive: 35.5 µM [inhibitor, single point]
30 | c1ccc(-c2nccc(-c3ccco3)n2)nc1 | – | inconclusive: 20 µM [inhibitor, single point]
31 | COc1ccc(-c2nc3ccccc3c(=O)n2CCOc2ccc(C)cc2C)cc1 | inactive: 4.89% | –
32 | COc1ccc(NC(=S)NCCCN2CCCC2)cc1Cl | inactive: 5.39% | –
33 | Cc1cccc(CNc2nc(-c3cccc(NS(C)(=O)=O)c3)nc3ccccc23)c1 | – | inconclusive: 39.8 µM [inhibitor, single point]
34 | COC(=O)c1ccc2c(=O)n(CCCCCC(=O)NCc3ccccc3)c(=O)[nH]c2c1 | – | inconclusive: 20 µM [inhibitor, partial curve]
35 | COc1ccc(C2=CC3=C(Br)C(=O)C(C)(O)C(=O)C3=CO2)cc1 (stereo unspecified) | – | inactive
36 | CC1=CC(C)(C)N(C(=O)Nc2ccccc2)c2ccccc21 | – | inconclusive: 28.2 µM [inhibitor, single point]
37 | CCc1ccc(NC(=O)c2cc(-c3cccs3)on2)cc1 | – | inconclusive: 28.2 µM [inhibitor, single point]
38 | O=C(COC(=O)c1cc(-c2cccnc2)nc2ccccc12)Nc1ccc(F)cc1F | – | inconclusive: 39.8 µM [inhibitor, single point]
39 | CCCN1CCC(=NNC(=O)CSc2cc(C)c(Br)cc2C)CC1 | inactive: -1.29% | –
40 | O=C1CCC/C(=N/NC(=O)C2CCN(S(=O)(=O)c3cccs3)CC2)C1 | inactive: -11% | –
41 | CNC(=O)c1ccsc1NC(=O)c1coc2ccccc2c1=O | inactive: 2.72% | –
42 | CS(=O)(=O)c1ccc2nc(NC(=O)Nc3cccc(Cl)c3)sc2c1 | – | inconclusive: 35.5 µM [inhibitor, single point]
43 | COc1ccccc1CNC(=O)CCc1c(C)nc2cc(-c3ccccc3OC)nn2c1C | – | inconclusive: 31.6 µM [inhibitor, partial curve]
44 | CC(C)[C@H](NC(=O)c1ccco1)C(=O)OCc1cc(=O)n2c(n1)sc1ccccc12 | – | inconclusive: 35.5 µM [inhibitor, single point]
45 | O=C(NCc1ccccc1)c1ccc2c(c1)C(=O)N(CC1CCCO1)C2=O (stereo unspecified) | inactive: -1.28% | –
46 | CC1CCCCN1C(=O)CCS(=O)(=O)c1cccc2nonc12 (stereo unspecified) | inactive: -7.42% | –
